Source: the supplement of paper PMC7826260
The other results are listed elsewhere or left out. One pool of 16,384 single-stranded DNAs met each Rep nickase domain in vitro for 1 h at 37 °C with 3 µM enzyme; only the middle of the 90-letter strands is printed. A value is the log2 ratio of uncut reads to the pool without enzyme; uncut sequences lie near 0, cut ones below; no hit call is given. Counts are relative to all reads, so uncut sequences can rise above 0 when many others are cut.

Columns and labels:
Experiment in all cases: uncleaved DNA left, log2 of reads against the no-enzyme library (log2 ratio); higher = less cleavage (more negative = more Rep cleavage of the k-mer); sequences stand for … in CTCGTCCG…ACCGGAGA
[1] = test system: T1, Rep nickase domain of Muscovy duck circovirus
T1 sequence (Rep 1-111, printed without the tag): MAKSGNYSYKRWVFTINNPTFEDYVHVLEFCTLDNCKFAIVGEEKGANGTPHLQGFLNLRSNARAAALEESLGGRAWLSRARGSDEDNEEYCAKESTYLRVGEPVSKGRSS
Protocol: (§1)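 A pool of 90-nt single-stranded DNAs with seven random bases just before the constant AC of the nick site (name = the seven bases) was cut by 3 µM recombinant His6-SUMO-tagged Rep nickase domain (300 nM DNA, 50 mM HEPES pH 8.0, 50 mM NaCl, 1 mM MnCl2, 1 h, 37 °C, three replicates). Uncut DNA was amplified and sequenced.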

[2] = test system: T2, Rep nickase domain of banana bunchy top virus
T2 sequence (Rep 1-94, printed without the tag): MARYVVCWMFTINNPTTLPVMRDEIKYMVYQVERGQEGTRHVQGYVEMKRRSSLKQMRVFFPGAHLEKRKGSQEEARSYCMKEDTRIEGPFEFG
Protocol: as §1

[3] = test system: T3, Rep nickase domain of cabbage leaf curl virus
T3 sequence (Rep 1-116, printed without the tag): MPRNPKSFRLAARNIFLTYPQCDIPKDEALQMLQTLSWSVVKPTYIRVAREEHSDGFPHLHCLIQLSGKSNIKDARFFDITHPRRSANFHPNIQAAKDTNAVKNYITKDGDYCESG
Protocol: as §1

[4] = test system: T4, Rep nickase domain of chickpea chlorotic dwarf virus
T4 sequence (Rep 1-124, printed without the tag): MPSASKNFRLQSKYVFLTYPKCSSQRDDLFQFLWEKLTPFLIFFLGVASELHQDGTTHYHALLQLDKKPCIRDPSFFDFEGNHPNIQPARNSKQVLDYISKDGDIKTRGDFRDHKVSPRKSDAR
Protocol: as §1

[5] = test system: T5, Rep nickase domain of faba bean necrotic yellows virus
T5 sequence (Rep 1-98, printed without the tag): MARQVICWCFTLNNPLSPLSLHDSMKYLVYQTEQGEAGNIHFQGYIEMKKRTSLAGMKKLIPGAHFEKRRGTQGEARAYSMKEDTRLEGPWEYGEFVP
Protocol: as §1

[6] = test system: T6, Rep nickase domain of maize striate mosaic virus
T6 sequence (Rep 1-117, printed without the tag): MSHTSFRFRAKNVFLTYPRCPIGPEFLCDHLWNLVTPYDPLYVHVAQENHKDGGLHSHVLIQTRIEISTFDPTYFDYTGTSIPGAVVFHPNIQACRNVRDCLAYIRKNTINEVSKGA
Protocol: as §1

[7] = test system: T7, Rep nickase domain of porcine circovirus 2
T7 sequence (Rep 2-116, printed without the tag): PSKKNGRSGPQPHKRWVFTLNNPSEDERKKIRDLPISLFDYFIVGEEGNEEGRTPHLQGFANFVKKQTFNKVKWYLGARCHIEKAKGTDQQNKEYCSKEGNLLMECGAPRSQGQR
Protocol: as §1

[8] = test system: T8, Rep nickase domain of tomato golden mosaic virus
T8 sequence (Rep 1-124, printed without the tag): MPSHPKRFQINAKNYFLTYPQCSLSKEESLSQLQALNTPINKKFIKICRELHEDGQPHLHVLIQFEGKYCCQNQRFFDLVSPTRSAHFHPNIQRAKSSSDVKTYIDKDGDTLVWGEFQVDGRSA
Protocol: as §1

[9] = test system: T9, Rep nickase domain of tomato yellow leaf curl virus
T9 sequence (Rep 1-136, printed without the tag): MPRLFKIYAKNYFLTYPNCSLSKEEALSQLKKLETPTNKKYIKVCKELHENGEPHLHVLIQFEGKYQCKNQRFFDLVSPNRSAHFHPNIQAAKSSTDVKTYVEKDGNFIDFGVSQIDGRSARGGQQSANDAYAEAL
Protocol: as §1

[10] = test system: T10, Rep nickase domain of wheat dwarf virus
T10 sequence (Rep 1-137, printed without the tag): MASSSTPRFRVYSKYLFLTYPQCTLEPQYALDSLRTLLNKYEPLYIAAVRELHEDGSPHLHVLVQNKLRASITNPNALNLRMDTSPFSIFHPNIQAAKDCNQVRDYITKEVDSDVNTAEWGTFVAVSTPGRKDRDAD
Protocol: as §1

Sequence | uncleaved DNA left (log2) [1] | uncleaved DNA left (log2) [2] | uncleaved DNA left (log2) [3] | uncleaved DNA left (log2) [4] | uncleaved DNA left (log2) [5] | uncleaved DNA left (log2) [6] | uncleaved DNA left (log2) [7] | uncleaved DNA left (log2) [8] | uncleaved DNA left (log2) [9] | uncleaved DNA left (log2) [10]
TTATGTC | -0.0156 | -0.155 | -0.0996 | -0.451 | -0.0367 | -0.998 | -0.211 | -0.16 | -0.0431 | -0.0941
AACAAGG | -0.00808 | -0.0141 | 0.181 | 0.86 | 0.0029 | -0.0847 | 0.222 | 0.0745 | -0.0841 | 0.0564
TCGCTTC | 0.0549 | -0.0193 | 0.204 | -0.118 | 0.12 | -0.626 | 0.0627 | -0.121 | 0.00453 | -0.114
TAACTCG | -0.112 | -0.129 | -0.986 | -1.53 | -0.0166 | -1.35 | -0.004 | -0.124 | -0.135 | -0.166
CTAATAG | -0.0861 | -0.17 | -0.919 | -0.55 | -0.0108 | -1.39 | 0.164 | -0.11 | -0.0608 | -0.076
CTGGAGA | 0.0505 | 0.0262 | -0.0643 | 0.111 | 0.125 | -0.671 | 0.135 | -0.00614 | -0.0159 | -0.0112
TGCCTGA | 0.135 | -0.0263 | 0.208 | 0.544 | 0.164 | 0.797 | 0.173 | 0.139 | 0.0663 | 0.171
CTTTGCG | 0.00852 | 0.0862 | -0.213 | 1.22 | 0.174 | 0.961 | 0.147 | -0.0793 | -0.0813 | -0.0516
GGAGTTA | -0.00219 | 0.0485 | 0.484 | 1.14 | -0.0547 | 1.83 | 0.0405 | 0.0588 | 0.0388 | 0.0856
TGCAGAA | 0.0453 | -0.000809 | 0.0493 | 0.0368 | 0.155 | -0.527 | 0.0471 | 0.103 | 0.000765 | 0.0763
ACCAGGG | 0.0689 | 0.133 | -0.271 | 0.174 | 0.184 | -0.519 | 0.22 | 0.0308 | 0.156 | -0.0252
TAATCAT | -2.65 | -0.0516 | -4.25 | -3.16 | -0.0286 | -2.92 | -3.54 | -3.93 | -0.118 | -3.9
CGATGCT | -1 | 0.00857 | -0.477 | -1.15 | 0.043 | -0.983 | -1.35 | -0.135 | 0.12 | -0.0637
TTGTCAA | 0.0354 | 0.0582 | 0.431 | 0.902 | 0.118 | 1.14 | 0.12 | 0.0273 | 0.105 | 0.14
CTCGCTT | 0.000588 | -0.0893 | 0.0104 | -1.71 | -0.172 | -0.518 | -1.02 | 0.0123 | -0.0104 | -0.129
CCATTAG | 0.0466 | -0.0425 | -0.419 | 0.556 | 0.0542 | -0.362 | 0.154 | -0.026 | 0.0512 | -0.199
CTGGAAC | -0.134 | 0.0231 | 0.161 | 0.215 | -0.153 | 0.251 | 0.0694 | 0.00548 | 0.0329 | 0.0442
CTAACTC | 0.083 | 0.0813 | -0.0796 | -1.4 | 0.0693 | -0.472 | 0.0675 | -0.0785 | 0.0691 | -0.0248
CCGATCA | -0.101 | -0.0842 | 0.229 | -0.0385 | -0.141 | 0.19 | -0.148 | 0.0742 | -0.0403 | -0.0458
GGGGGGT | -0.00128 | 0.191 | 0.832 | 1.74 | 0.0951 | 2.15 | 0.247 | 0.0643 | 0.00957 | 0.104
CTTCAGA | 0.19 | -0.0358 | -0.111 | -0.356 | 0.0784 | -0.968 | 0.0789 | 0.139 | -0.0743 | 0.0302
CCCGAAG | -0.0891 | 0.0371 | -0.669 | -0.465 | -0.0123 | -1.02 | 0.121 | -0.157 | -0.0328 | -0.115
AGCCACG | 0.00381 | 0.0086 | -0.615 | -0.524 | -0.0903 | -0.932 | 0.106 | 0.0747 | -0.0901 | -0.00297
CTCCAGA | -0.0184 | -0.155 | -0.00932 | -0.0961 | -0.149 | -0.752 | 0.00848 | -0.0469 | 0.00185 | 0.0155
CCGCTCC | 0.0505 | 0.00658 | 0.169 | 0.119 | 0.051 | 0.573 | 0.0499 | -0.0943 | -0.0314 | -0.161
CTGAGGA | -0.0605 | 0.0328 | 0.105 | 0.427 | 0.166 | -0.383 | 0.199 | -0.0272 | 0.0161 | 0.0373
TTACGTG | -0.164 | -0.0415 | -0.712 | -1.24 | -0.107 | -1.2 | 0.0337 | -0.0619 | -0.0398 | -0.194
TGGCTAG | 0.0209 | 0.0205 | -0.384 | -0.535 | 0.137 | -0.693 | 0.235 | 0.0484 | 0.0813 | -0.0307
TGAACAC | 0.0759 | 0.127 | 0.332 | 0.621 | 0.0447 | 0.894 | 0.0484 | 0.0616 | 0.0774 | 0.0864
GGTATGG | 0.0477 | 0.162 | 0.476 | 0.909 | 0.000446 | 0.941 | 0.146 | 0.131 | 0.053 | 0.0591
